Data on 120 sequences can be found in the supplement of paper PMC5655136.

Read counts after selection give these values, which scatter widely.
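Also: shRNA barcodes quantified by deep sequencing of PCR amplicons from cellular DNA, counts expressed as percent of each subpool, ratio averaged over two biological duplicates.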

The subject of the first series is NB7. The series is described as follows: fold depletion of shRNA, plasmid library share / infected cells without Dox share (9 days) (ratio); higher = more depleted after infection (more toxic, leaky expression from a Tet-inducible vector; NB7 is a neuroblastoma line without caspase-8). The conditions noted are these: shRNA pool: CD95L ORF + CD95L 3'UTR + Venus libraries.
With ATGGAAAAGGAAGACTAGAGG, the “fold depletion of shRNA” value was found to be 7.53.
Same read-out and setting: then CTGGGCTACGGCCTGCAGTGC, with 1.24; and TGCTACCTCAAGGGGGACTGT, with 4.1.
On the same count and under the same terms, then TCAAGATTTTGAATGCTTCCT, with 10.2.
The same measure, in the same setting: then AGGCTACGTCCAGGAGCGCAC, with 0.675.
As for ACCTGAGCTACCAGTCCGCCC, the “fold depletion of shRNA” value was found to be 1.47.
The same measure, in the same setting: next, CAGAACTCCGAGAGTCTACCA: 1.38; ACAAGCTGGAGTACAACTACA: 3.88.
As for TGTGTGTGTGTGTGTGTGTAT, the “fold depletion of shRNA” value stood at 9.37.
On the same count and under the same terms, then AAGTCCGCCATGCCCGAAGGC, with 0.695.
The same measure, in the same setting: next, CGAGGAGCTGTTCACCGGGGT: 0.897; AAATGGAGGAATATGACGGAA: 1.72; ACCTATGGAATTGTCCTGCTT: 1.99.
On the same count and under the same terms, next, CATGTGTATTTCCAGTGCAAT: 1.43; TCGTGACCGCCGCCGGGATCA: 0.433.
For the sequence GCCCCACTGGCAGCATCTTCA, the “fold depletion of shRNA” value was determined as 1.25.
Consider GGGCGATGCCACCTACGGCAA, for which the “fold depletion of shRNA” value turned out to be 1.14.
Same read-out and setting: next, AGTGGCCCATTTAACAGGCAA: 1.16.
Consider GCTACCTCAAGGGGGACTGTC, for which the “fold depletion of shRNA” value was 3.02.
On to ATGAGCCAGACAAATGGAGGA, for which the “fold depletion of shRNA” value amounted to 1.24.
Same read-out and setting: then TAATAAATATTTATGTAGATG, with 0.9; and TCTCTCTGGTCAATTTTGAGG, with 1.53.
Same read-out and setting: then CATTTATATGTCAACGTATCT, with 0.382.
On to ACGACTTCTTCAAGTCCGCCA, for which the “fold depletion of shRNA” value worked out at 2.63.
Same read-out and setting: next, CCTTGAGACCACAGGGTTCAA: 0.921.
Same read-out and setting: next, TATGATTCTTTGTTACAGGCA: 2.1.
Still for that read-out and setting: next, CCGACAAGCAGAAGAACGGCA: 0.799; TGTGACCTGAGGATTTAAGGG: 2.13; AGGGCGACACCCTGGTGAACC: 1.17.
For CGGCGACGTAAACGGCCACAA, the “fold depletion of shRNA” value was 0.587.
On to ACCTCTCAAGGTGGGCCTTGC, for which the “fold depletion of shRNA” value is 0.38.
Same read-out and setting: then AGTTCAGCGTGTCCGGCGAGG, with 0.763; and GGAGCTGTTCACCGGGGTGGT, with 0.488.
On the same count and under the same terms, next, ATGTTGTATTCAGTGAGGGTC: 2.17; GAGGGAACCACAGCACAGGCC: 0.3; CTCTAATAGTGCTTAAAAATC: 0.646.
The same measure, in the same setting: then GGTCAAGTAAGAAGACATGAA, with 0.862; and AAGGGGGACTGTCTTTCAGAT, with 0.826.
For the sequence CGGCATCAAGGCCAACTTCAA, the “fold depletion of shRNA” value was 1.07.
Same read-out and setting: then TCTATATCACCGCCGACAAGC, with 0.59; and ACAACATCGAGGACGGCGGCG, with 0.721; and ATCGACTTCAAGGAGGACGGC, with 0.862.
On the same count and under the same terms, next, TGATGGAGGGGAAGATGATGA: 1.74.
Still for that read-out and setting: next, CTGACAATCAACTCTAATAGT: 2.09; AGCAAATAGGCCACCCCAGTC: 1.3.
Take AGGTGTTCTACACTCATCTTA: the “fold depletion of shRNA” value is 3.73.
Take TACTAATGATGTTTTCCTATA: the “fold depletion of shRNA” value came to 0.705.
Still for that read-out and setting: then AGACACCTATGGAATTGTCCT, with 0.729; and CACTTCTAAATGCATATCCTG, with 1.38; and GTGTGTATGACTAAAGAGAGA, with 2.29.
In the case of TACATGGTTGTGACCTGAGGA, the “fold depletion of shRNA” value was found to be 8.87.
The same measure, in the same setting: next, TCTTTGGAGAAGCAAATAGGC: 2.57; TTTATATGTCAACGTATCTGA: 0.998.
As to CTTTGGGATTCTTTCCATTAT, the “fold depletion of shRNA” value is 1.76.
On the same count and under the same terms, next, TACATATTAGGAAAATATGGG: 0.853; GGCAGATGTGGGCCCGCAGCA: 2.74.
As for TGACCGCCGCCGGGATCACTC, the “fold depletion of shRNA” value was 1.43.
Regarding ATTATGATTCTTTGTTACAGG, the “fold depletion of shRNA” value was found to be 1.43.
Still for that read-out and setting: then TCTAATAGTGCTTAAAAATCA, with 0.721; and GAAATGAAAACATGTAATAAA, with 0.619.
On the same count and under the same terms, next, CAATGAAACTGGGCTGTACTT: 2.94.
The same measure, in the same setting: next, TCCACCTACAGAAGGAGCTGG: 3.05.

The series is the same for the next values; noted with them: shRNA pool: CD95 ORF + CD95 3'UTR + Venus libraries.
On to AATATATCACCACTATTGCTG, for which the “fold depletion of shRNA” value turned out to be 1.03.
Same read-out and setting: next, ATCTGGATTTAGGAATTGCTC: 7.35; CTGCATCATGATGGCCAATTC: 0.992.
Take CACCACTATTGCTGGAGTCAT: the “fold depletion of shRNA” value worked out at 1.17.
The same measure, in the same setting: then AGGGATTGGAATTGAGGAAGA, with 1.32; and GTCTGTTGCTAGATTATCGTC, with 1.52.
For the sequence CTGGGCTACGGCCTGCAGTGC, the “fold depletion of shRNA” value was found to be 1.07.
As to AAGAAGCGTATGACACATTGA, the “fold depletion of shRNA” value stood at 0.549.
Still for that read-out and setting: next, AGTACCCAAATAGGAGTGTAT: 1.32.
Same read-out and setting: then AGGCTACGTCCAGGAGCGCAC, with 0.492; and ACCTGAGCTACCAGTCCGCCC, with 1.34; and ACAAGCTGGAGTACAACTACA, with 2.63.
On the same count and under the same terms, then GTAATTAAATAATGTTTTTGG, with 0.979.
For the sequence AAGTCCGCCATGCCCGAAGGC, the “fold depletion of shRNA” value is 0.549.
Same read-out and setting: then GCATTTTACTGGCTCAAAACT, with 1.96.
Still for that read-out and setting: next, CGAGGAGCTGTTCACCGGGGT: 0.678; TCGTGACCGCCGCCGGGATCA: 0.743; GGGCGATGCCACCTACGGCAA: 0.821.
The same measure, in the same setting: next, GCTCTTGTCATACCCCCAAGT: 2.11; AAGTTCAACTGCTTCGTAATT: 1.72.
Consider GGCTTAGAAGTGGAAATAAAC, for which the “fold depletion of shRNA” value is 1.08.
Still for that read-out and setting: then AGAAGTGGAAATAAACTGCAC, with 0.944; and CAGAAAATTCAAACTTCAGAA, with 1.39; and CTGGTTTGGAGATACTAACTG, with 1.28.
On the same count and under the same terms, then AATATCTTTGAAAGTTTGTAT, with 1.05.
As to GGATTGGAATTGAGGAAGACT, the “fold depletion of shRNA” value came to 1.36.
Same read-out and setting: next, ACGACTTCTTCAAGTCCGCCA: 2.3; GTGTATGTTAGTACAAATGTC: 1.39; TATGACCTTTTGCTGAAATAT: 2.76.
Take AGATACCTGGAACCACCTAAA: the “fold depletion of shRNA” value came to 2.25.
Still for that read-out and setting: next, TAATGCACCCCCAAACATGGA: 1.12; CCGACAAGCAGAAGAACGGCA: 0.691.
On the same count and under the same terms, then AGTTATAAACTGAAGCAGATA, with 0.94; and CTGATAATTCTAGAGATTTTA, with 0.679; and AGGGCGACACCCTGGTGAACC, with 1.6.
Same read-out and setting: then CGGCGACGTAAACGGCCACAA, with 0.947.
In the case of TTTAAATCCTGAAACAGTGGC, the “fold depletion of shRNA” value came out at 1.02.
On to AAAATTCAGACTATCATCCTC, for which the “fold depletion of shRNA” value was 1.03.
Turning to TAGGTAAAAGTACGTAATTAA, the “fold depletion of shRNA” value turned out to be 0.915.
Same read-out and setting: then GAGAGTATTACTAGAGCTTTG, with 0.915.
Still for that read-out and setting: then TCTCATGAATCTCCAACTTTA, with 0.71.
The same measure, in the same setting: next, CAGACTATCATCCTCAAGGAC: 0.9.
In the case of AGTTCAGCGTGTCCGGCGAGG, the “fold depletion of shRNA” value turned out to be 0.542.
Same read-out and setting: next, CATTTTACTGGCTCAAAACTA: 1.16.
Still for that read-out and setting: next, GGAGCTGTTCACCGGGGTGGT: 1.1; AGAGTGAAAAACAACAAATTC: 1.12; ATATTTGTAGATTTTTAATAT: 1.07.
On the same count and under the same terms, next, CAACATATTTGTAGATTTTTA: 1.16; AAACATGCAGAAAGCACAGAA: 2.03; AATGAAGCCAAAATAGATGAG: 2.53.
With ATTAAAGATCTCAAAAAAGCC, the “fold depletion of shRNA” value was determined as 2.39.
On the same count and under the same terms, then TGTTAATGCCCAAGTGACTGA, with 1.05; and GGTGAAGTTCGAGGGCGACAC, with 2.3.
Take CGGCATCAAGGCCAACTTCAA: the “fold depletion of shRNA” value was determined as 1.39.
For TCAGAGAAAGTAGCTTTGTGA, the “fold depletion of shRNA” value was determined as 1.47.
Same read-out and setting: next, ATGGCTTAGAAGTGGAAATAA: 0.987.
Still for that read-out and setting: then TCTATATCACCGCCGACAAGC, with 0.966; and ACAACATCGAGGACGGCGGCG, with 1.03; and ACACAGCAGAACAGAAAGTTC, with 0.622.
Same read-out and setting: then CTAGTTGGGAAAACAAACTTC, with 2.94.
Consider ATCGACTTCAAGGAGGACGGC, for which the “fold depletion of shRNA” value was found to be 1.
Still for that read-out and setting: then AGTGGCAATAAATTTATCTGA, with 0.713; and AACTTCAGAAATGAAATCCAA, with 1.13; and TATCACCACTATTGCTGGAGT, with 1.76.
Same read-out and setting: then TACCTGGAACCACCTAAAGAA, with 1.17; and AGTGCAAAGAGGAAGGATCCA, with 1.93; and TGTTTGACTATTATATATGTG, with 0.836.
TCTTTCTCAGGCATCAAAAGC: the “fold depletion of shRNA” value was 1.51.
On the same count and under the same terms, next, GCCCTGTCCTCCAGGTGAAAG: 1.36.
The same measure, in the same setting: next, TTTGAAAAGATTCTTAATAGC: 0.799.
The same measure, in the same setting: next, AAGAACTTCCATTTATGGAGG: 1.24; GTACCCAAATAGGAGTGTATG: 2.68; TTCTCAGGCATCAAAAGCATT: 1.39.
AACTGCTTCGTAATTGGCATC: the “fold depletion of shRNA” value turned out to be 1.72.
The same measure, in the same setting: then AAAGTTCAACTGCTTCGTAAT, with 2.36; and GATGTAAACCAAACTTTTTTT, with 0.751.
